# Laboratory results as given in paper PMC12820563.
# The list shows a part of the results. The list includes weakly bound sequences.
# Molecular target: T1, MBP-FoxP3dN (UniProt Q99JB6)
# T1 sequence: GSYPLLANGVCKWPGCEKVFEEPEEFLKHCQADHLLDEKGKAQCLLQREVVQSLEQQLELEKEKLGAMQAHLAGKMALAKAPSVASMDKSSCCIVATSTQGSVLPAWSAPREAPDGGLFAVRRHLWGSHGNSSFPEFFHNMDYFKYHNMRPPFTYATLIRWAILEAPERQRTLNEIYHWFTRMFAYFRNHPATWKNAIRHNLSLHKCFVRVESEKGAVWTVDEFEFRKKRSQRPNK
# Test: PD-seq (MBP pull-down with sequencing)
# Conditions: 20 mM Tris-HCl pH 7.5, 100 mM NaCl, 1.5 mM MgCl2, 0.4 uM protein, 0.1 uM dsDNA library, 30 min, room temperature, amylose pull-down; high values mean tight binding; double strand, one strand shown
row,Sequence,binding signal (RPM ratio (pull-down/input))
1,GATGATTGTTCTCCCAGCTGATGAATTGGCGGGATCGAGTAAACAAATTTTCCTAATCTTTCTGTTCAAGCGCCATCTAC,0.323
2,GATGATTGTTCTCCCAGCTGATGAATTGACCACCTCGAGTAAACAAATTTTCCTAATCTTTCTGTTCAAGCGCCATCTAC,0.312
3,GATGATTGTTCTCCCAGCTGATGAATTTTACGCTTCGAGTAAACAAATTTTCCTAATCTTTCTGTTCAAGCGCCATCTAC,0.414
4,GATGATTGTTCTCCCAGCTGATGAATTCTTCCGATCGAGTAAACAAATTTTCCTAATCTTTCTGTTCAAGCGCCATCTAC,0.208
5,GATGATTGTTCTCCCAGCTGATGAATTTAAAAGGTCGAGTAAACAAATTTTCCTAATCTTTCTGTTCAAGCGCCATCTAC,0.203
6,GATGATTGTTCTCCCAGCTGATGAATTTCAGCAGTCGAGTAAACAAATTTTCCTAATCTTTCTGTTCAAGCGCCATCTAC,0.328
7,GATGATTGTTCTCCCAGCTGATGAATTCGATTCGTCGAGTAAACAAATTTTCCTAATCTTTCTGTTCAAGCGCCATCTAC,1.09
8,GATGATTGTTCTCCCAGCTGATGAATTCCTGCGGTCGAGTAAACAAATTTTCCTAATCTTTCTGTTCAAGCGCCATCTAC,0.244
9,GATGATTGTTCTCCCAGCTGATGAATTCAGTATGTCGAGTAAACAAATTTTCCTAATCTTTCTGTTCAAGCGCCATCTAC,2.28
10,GATGATTGTTCTCCCAGCTGATGAATTCACGTTTTCGAGTAAACAAATTTTCCTAATCTTTCTGTTCAAGCGCCATCTAC,0.512
11,GATGATTGTTCTCCCAGCTGATGAATTAGCAAGGTCGAGTAAACAAATTTTCCTAATCTTTCTGTTCAAGCGCCATCTAC,0.338
12,GATGATTGTTCTCCCAGCTGATGAATTAAGGTCATCGAGTAAACAAATTTTCCTAATCTTTCTGTTCAAGCGCCATCTAC,0.472
13,GATGATTGTTCTCCCAGCTGATGAATTAAAATCCTCGAGTAAACAAATTTTCCTAATCTTTCTGTTCAAGCGCCATCTAC,0.24
14,GATGATTGTTCTCCCAGCTGATGAATTATAGACTTCGAGTAAACAAATTTTCCTAATCTTTCTGTTCAAGCGCCATCTAC,0.576
15,GATGATTGTTCTCCCAGCTGATGAATTTCCAGGCTCGAGTAAACAAATTTTCCTAATCTTTCTGTTCAAGCGCCATCTAC,0.243
16,GATGATTGTTCTCCCAGCTGATGAATTCGAGCGATCGAGTAAACAAATTTTCCTAATCTTTCTGTTCAAGCGCCATCTAC,0.416
17,GATGATTGTTCTCCCAGCTGATGAATTTCCCAAGTCGAGTAAACAAATTTTCCTAATCTTTCTGTTCAAGCGCCATCTAC,0.151
18,GATGATTGTTCTCCCAGCTGATGAATTGTAACAATCGAGTAAACAAATTTTCCTAATCTTTCTGTTCAAGCGCCATCTAC,2.9
19,GATGATTGTTCTCCCAGCTGATGAATTCTTGGGTTCGAGTAAACAAATTTTCCTAATCTTTCTGTTCAAGCGCCATCTAC,0.281
20,GATGATTGTTCTCCCAGCTGATGAATTCCCAAGTTCGAGTAAACAAATTTTCCTAATCTTTCTGTTCAAGCGCCATCTAC,0.165

row,Sequence,binding signal (RPM ratio (pull-down/input))
1,GATGATTGTTCTCCCAGCTGATGAATTACGCAATTCGAGTAAACAAATTTTCCTAATCTTTCTGTTCAAGCGCCATCTAC,4.44
2,GATGATTGTTCTCCCAGCTGATGAATTTGCCTATTCGAGTAAACAAATTTTCCTAATCTTTCTGTTCAAGCGCCATCTAC,1.39
3,GATGATTGTTCTCCCAGCTGATGAATTTTCTGTTTCGAGTAAACAAATTTTCCTAATCTTTCTGTTCAAGCGCCATCTAC,0.343
4,GATGATTGTTCTCCCAGCTGATGAATTTTGAGACTCGAGTAAACAAATTTTCCTAATCTTTCTGTTCAAGCGCCATCTAC,0.962
5,GATGATTGTTCTCCCAGCTGATGAATTTTTTATTTCGAGTAAACAAATTTTCCTAATCTTTCTGTTCAAGCGCCATCTAC,0.301
6,GATGATTGTTCTCCCAGCTGATGAATTGCCCAGTTCGAGTAAACAAATTTTCCTAATCTTTCTGTTCAAGCGCCATCTAC,0.41
7,GATGATTGTTCTCCCAGCTGATGAATTTCAATGCTCGAGTAAACAAATTTTCCTAATCTTTCTGTTCAAGCGCCATCTAC,0.602
8,GATGATTGTTCTCCCAGCTGATGAATTGTCGAGCTCGAGTAAACAAATTTTCCTAATCTTTCTGTTCAAGCGCCATCTAC,0.25
9,GATGATTGTTCTCCCAGCTGATGAATTATGGCTGTCGAGTAAACAAATTTTCCTAATCTTTCTGTTCAAGCGCCATCTAC,0.612
10,GATGATTGTTCTCCCAGCTGATGAATTCAAAGGGTCGAGTAAACAAATTTTCCTAATCTTTCTGTTCAAGCGCCATCTAC,0.167
11,GATGATTGTTCTCCCAGCTGATGAATTCTCGTCTTCGAGTAAACAAATTTTCCTAATCTTTCTGTTCAAGCGCCATCTAC,0.379
12,GATGATTGTTCTCCCAGCTGATGAATTAAATTATTCGAGTAAACAAATTTTCCTAATCTTTCTGTTCAAGCGCCATCTAC,1.19
13,GATGATTGTTCTCCCAGCTGATGAATTCGGCTCATCGAGTAAACAAATTTTCCTAATCTTTCTGTTCAAGCGCCATCTAC,0.404
14,GATGATTGTTCTCCCAGCTGATGAATTACACAGCTCGAGTAAACAAATTTTCCTAATCTTTCTGTTCAAGCGCCATCTAC,0.443
15,GATGATTGTTCTCCCAGCTGATGAATTGTGAGCGTCGAGTAAACAAATTTTCCTAATCTTTCTGTTCAAGCGCCATCTAC,0.981
16,GATGATTGTTCTCCCAGCTGATGAATTCCCCGCGTCGAGTAAACAAATTTTCCTAATCTTTCTGTTCAAGCGCCATCTAC,0.354
17,GATGATTGTTCTCCCAGCTGATGAATTCCTGCCATCGAGTAAACAAATTTTCCTAATCTTTCTGTTCAAGCGCCATCTAC,1.54
18,GATGATTGTTCTCCCAGCTGATGAATTTCGGCGATCGAGTAAACAAATTTTCCTAATCTTTCTGTTCAAGCGCCATCTAC,0.503
19,GATGATTGTTCTCCCAGCTGATGAATTTCCTGGGTCGAGTAAACAAATTTTCCTAATCTTTCTGTTCAAGCGCCATCTAC,0.169
20,GATGATTGTTCTCCCAGCTGATGAATTGGGAAGTTCGAGTAAACAAATTTTCCTAATCTTTCTGTTCAAGCGCCATCTAC,0.246
